{
  "source": "PubChem BioAssay AID485341",
  "about": "(National Center for Advancing Translational Sciences (NCATS), 2010)",
  "note": "About 1,700 (0.52%) of roughly 330,000 compounds were called active. This list was built around the results that the source calls inconclusive (neither active nor inactive); the mix of calls is not that of the screen. The call rests on the fitted dose curve; in most records, active means well fitted inhibition curve with a large enough effect; inconclusive means small, poorly fitted or top-dose-only effect; inactive means no such curve, though single readings can be large or run the other way. A potency beside an inconclusive call is a rough fit, not a confirmed value. Potency means the concentration at half of the fitted maximal effect; tags describe the fitted curve by direction and shape.",
  "data": [
    {"target": "Beta-lactamase (Escherichia coli (strain K12)) (UniProt P00811)", "sequence (P00811 whole entry, looked up)": "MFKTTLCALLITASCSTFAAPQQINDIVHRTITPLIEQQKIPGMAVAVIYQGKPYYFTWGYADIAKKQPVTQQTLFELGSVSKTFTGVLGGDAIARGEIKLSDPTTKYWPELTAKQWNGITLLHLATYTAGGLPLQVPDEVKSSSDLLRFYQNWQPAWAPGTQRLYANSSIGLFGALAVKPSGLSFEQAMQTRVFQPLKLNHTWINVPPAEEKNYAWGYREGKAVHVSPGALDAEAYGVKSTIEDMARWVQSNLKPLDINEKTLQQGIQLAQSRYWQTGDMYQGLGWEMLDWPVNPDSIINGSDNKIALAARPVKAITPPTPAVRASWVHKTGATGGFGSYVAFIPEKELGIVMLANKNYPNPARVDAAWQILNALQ", "experiment": "qHTS Inhibitors of AmpC Beta-Lactamase (assay without detergent); further: nearly all actives have a fitted effect of over 20% in size;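 on activity change, negative = inhibition: plate controls were no compound for no effect and no enzyme for full effect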", "conditions": "AmpC nitrocefin hydrolysis, absorbance 480 nm, 0.0001% Triton; activity change, negative = inhibition: at 57.1 µM (top of the series) unless noted", "how_it_was_run": "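20 mM phosphate pH 7.0 + 0.01% (detergent screen) or 0.0001% Triton X-100; 5.3 nM AmpC reagent; cpd preinc 15 min RT; nitrocefin (800 uM stock) to start; A480 q20 s × 4 min; Activity was normalised to no-enzyme and no-compound control wells.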", "values": [
      {"molecule": "Cc1cccc(NC(=O)CSc2nc3[nH]ncc3c(=O)n2-c2ccccc2)c1", "Potency": "active: 8.91 µM"},
      {"molecule": "CN(Cc1ccc(Cl)cc1)C(=O)c1cc(S(=O)(=O)N2CCOCC2)ccc1N1CCCC1", "Potency": "inconclusive: 39.8 µM [inhibitor, single point]"},
      {"molecule": "NS(=O)(=O)c1ccc(N=Nc2c(O)c(C(=O)O)cc3ccccc23)cc1", "Potency": "active: 22.4 µM"},
      {"molecule": "CCc1nnc(NC(=O)CSc2nnc3ncccn23)s1", "Potency": "active: 0.316 µM"},
      {"molecule": "Cc1ccc2c(c1)-c1c(cnn1CC(=O)N(Cc1ccco1)C1CCCCC1)CO2", "Potency": "active: 50.1 µM"},
      {"molecule": "COc1cc(OC)cc(C(=O)NCCN2CCOCC2)c1", "Potency": "inconclusive: 5.01 µM [inhibitor, single point]"},
      {"molecule": "COc1ccc2c(c1)C1(Nc3ccccc3-c3nc4ccccc4n31)C(=O)N2", "note": "(configuration not stated)", "Potency": "active: 20 µM"},
      {"molecule": "COCCOc1cc(-n2ccnc2SC)c(Cl)cc1Cl", "Potency": "inconclusive: 3.98 µM [inhibitor, partial curve, poor fit]"},
      {"molecule": "CC(=O)Nc1cccc(NC(=O)Nc2cccc(F)c2)c1", "activity change, negative = inhibition": "inactive: -20.7%"},
      {"molecule": "Cc1cccc(N2CC(C(=O)NCc3ccco3)CC2=O)c1C", "note": "(configuration not stated)", "activity change, negative = inhibition": "inactive: -13%"},
      {"molecule": "COc1ccc(C(=O)Nc2cc(C)ccc2NC(=O)COc2ccccc2)cc1", "Potency": "inconclusive: 3.98 µM [inhibitor, single point]"},
      {"molecule": "c1ccc(CCCNCC2COc3ccccc3O2)cc1", "note": "(configuration not stated)", "activity change, negative = inhibition": "inactive: -16.7%"},
      {"molecule": "Cc1ccc(-c2nc3c(c(=O)[nH]c(=O)n3Cc3ccccc3)n2C)o1", "activity change, negative = inhibition": "inactive: -23.9%"},
      {"molecule": "COc1cccc2cc(/C(C)=N/Nc3nc(-c4cc(C)ccc4C)cs3)c(=O)oc12", "Potency": "inconclusive: 3.98 µM [inhibitor, single point]"},
      {"molecule": "Cc1cccc(C)c1NC(=O)N1C(C(=O)O)CSC1C(=O)O", "note": "(configuration not stated)", "Potency": "inconclusive: 8.91 µM [inhibitor, single point]"},
      {"molecule": "CCCC1=[N+](CC)CCn2c(C)ccc21", "Potency": "inconclusive: 6.31 µM [inhibitor, single point]"},
      {"molecule": "COc1ccc(NC(=O)CN(C)C(=O)C2CC(=O)N(Cc3ccc(C)cc3)C2)cc1", "note": "(configuration not stated)", "activity change, negative = inhibition": "inactive: 4.15%"},
      {"molecule": "CN1C(=O)/C(=C/c2cccn2-c2ccc3ccccc3c2)C(=O)NC1=S", "Potency": "inconclusive: 35.5 µM [inhibitor, single point]"},
      {"molecule": "CCc1cccc(CC)c1NC(=O)C1CSC2(C)CCC(=O)N12", "note": "(configuration not stated)", "Potency": "inconclusive: 35.5 µM [inhibitor, single point]"},
      {"molecule": "CN(CCOc1ccc(-c2ccn(S(=O)(=O)c3cccc4ccccc34)n2)cc1)c1ccccn1", "Potency": "inconclusive: 0.316 µM [inhibitor, full curve, poor fit]"},
      {"molecule": "Cc1ccc(NS(=O)(=O)c2cc(C(=O)Nc3cccc(N(C)S(C)(=O)=O)c3)ccc2C)c(C)c1", "Potency": "inconclusive: 8.91 µM [inhibitor, single point]"},
      {"molecule": "CC(OC(=O)C1CC1C)C(=O)Nc1ncc(Cl)cc1Cl", "note": "(configuration not stated)", "Potency": "inconclusive: 28.2 µM [inhibitor, single point]"},
      {"molecule": "COc1cc(/C=C(\\C#N)c2ccccn2)ccc1OCC(=O)Nc1c(Cl)cccc1Cl", "Potency": "inconclusive: 22.4 µM [inhibitor, single point]"},
      {"molecule": "O=S(=O)(c1cccc(-c2nc3ccccc3s2)c1)N1CCCC1", "Potency": "inconclusive: 8.91 µM [inhibitor, full curve, poor fit]"},
      {"molecule": "CC1CCCCN1S(=O)(=O)CCNC(=O)c1ccccc1", "note": "(configuration not stated)", "Potency": "inconclusive: 31.6 µM [inhibitor, single point]"},
      {"molecule": "NS(=O)(=O)c1ccc(CCNC(=O)CCCCCn2c(=S)[nH]c3ccc(Br)cc3c2=O)cc1", "Potency": "active: 17.8 µM"},
      {"molecule": "CC(C)CCNC(=O)C1CCN(C(=O)N(C)C)CC1", "Potency": "inconclusive: 3.98 µM [inhibitor, single point]"},
      {"molecule": "CC(=O)OCC1=C(C(=O)O)N2C(=O)[C@@H](NC(=O)Cc3cccs3)[C@H]2SC1", "Potency": "active: 8.91 µM"},
      {"molecule": "CCSCc1nnc(SCC(=O)Nc2cccc(SC)c2)n1C", "Potency": "inconclusive: 6.31 µM [inhibitor, single point]"},
      {"molecule": "O=C(NN=Cc1ccccc1OC(F)F)c1ccc(NS(=O)(=O)c2cccs2)cc1", "Potency": "active: 15.8 µM"},
      {"molecule": "Cc1nnc(NC(=O)CN2CCN(Cc3ccccc3)CC2)s1", "activity change, negative = inhibition": "inactive: -17.7%"},
      {"molecule": "COc1ccc(-c2ccc3c(c2)S(=O)(=O)c2cccc(C(=O)N4CCN(c5c(Cl)cncc5Cl)CC4)c2C3=O)cc1OC", "activity change, negative = inhibition": "inactive: 1.85%"},
      {"molecule": "O=C1N=C(N2CCN(c3ccccc3)CC2)S/C1=C\\c1ccco1", "activity change, negative = inhibition": "inactive: 3.79%"},
      {"molecule": "C=CCOc1c2ccc(C(=O)N(CC)c3ccc(OC)cc3)cc2nn1C", "Potency": "inconclusive: 2.51 µM [inhibitor, partial curve, poor fit]"},
      {"molecule": "O=C(CSc1ccccc1)Nc1nc2ccccc2[nH]1", "activity change, negative = inhibition": "inactive: -32.2%"},
      {"molecule": "COc1ccc(CCC(=O)OCC(=O)Nc2c(C)nn(-c3ccccc3)c2C)cc1", "Potency": "inconclusive: 39.8 µM [inhibitor, single point]"},
      {"molecule": "CCCCC(NC(C)=O)c1nc2ccccc2[nH]1", "note": "(configuration not stated)", "Potency": "active: 39.8 µM"},
      {"molecule": "Cc1ccccc1NC(=O)N(CCc1nc2ccccc2[nH]1)Cc1ccccc1", "Potency": "inconclusive: 15.8 µM [inhibitor, partial curve]"},
      {"molecule": "CCOc1cc(CN2CCC(CO)(Cc3cccc(C(F)(F)F)c3)CC2)ccc1OC", "activity change, negative = inhibition": "inactive: 88.7%"},
      {"molecule": "CN(C(=O)COC(=O)c1ccc(Br)c(S(=O)(=O)N2CCOCC2)c1)C1CCCCC1", "activity change, negative = inhibition": "inactive: 67.2%"},
      {"molecule": "CC1(C)CC(=O)C2=C(C1)OC(N)=C(C#N)C2c1cccc(OC(=O)c2ccco2)c1", "note": "(configuration not stated)", "Potency": "inconclusive: 8.91 µM [inhibitor, single point]"},
      {"molecule": "COc1ccc2c(c1)CCC/C2=N\\Nc1nc(C(=O)NN)cs1", "activity change, negative = inhibition": "inactive: -11.8%"},
      {"molecule": "Cc1ccc(NC(=S)N/N=C2/CCCCc3ccccc32)cc1", "Potency": "inconclusive: 7.08 µM [inhibitor, full curve, poor fit]"},
      {"molecule": "Cc1ccc2nc(-c3ccccc3)nc(SC(C)C(=O)NCc3cccs3)c2c1", "note": "(configuration not stated)", "Potency": "inconclusive: 3.98 µM [inhibitor, single point]"},
      {"molecule": "COc1ccc(Oc2nc(C)cc(C)c2C#N)cc1", "Potency": "inconclusive: 6.31 µM [inhibitor, single point]"},
      {"molecule": "CCCc1c(C(=O)OCC)[nH]c2c1C(=O)CCC2", "activity change, negative = inhibition": "inactive: 0.702%"},
      {"molecule": "CC1CCC(NC(=O)c2ccc3c(c2)OCO3)CC1", "note": "(configuration not stated)", "activity change, negative = inhibition": "inactive: -22%"}
    ]}
  ]
}
